# Measurements published in paper PMC4242493.
# This is one part of the list. The list includes weakly bound sequences.
# Biological target: MaxL homodimer (UniProt P61244)
# Experiment: universal protein-binding microarray (PBM)
# Settings: PBS-based mixture, 10 nM His-tagged protein dimer, 2% milk, 200 ng/uL BSA, 50 ng/uL salmon testes DNA, 0.02% TX-100; detection with Alexa 488 anti-His …; high values mean tight binding; most listed sequences are background and not binding sites; double strand, one strand shown
# Sequence of UniProt P61244 (P61244 whole entry): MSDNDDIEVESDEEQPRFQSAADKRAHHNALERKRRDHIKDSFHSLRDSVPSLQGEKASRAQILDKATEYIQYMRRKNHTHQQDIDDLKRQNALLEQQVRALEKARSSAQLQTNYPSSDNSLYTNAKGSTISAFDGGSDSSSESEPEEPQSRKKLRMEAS
row,Sequence,binding signal (normalized occupancy)
1,CTTGCTAC,0.0726
2,AGTGCACG,0.0853
3,CCACAGCC,0.0702
4,AGCGCTAT,0.0678
5,ATCCGTCC,0.0736
6,CGCCAGTA,0.0708
7,CATGGCGG,0.0909
8,ACAGCAGC,0.0714
9,AGGGGCTG,0.0775
10,ACCCGTCC,0.0729
11,ACTTAACC,0.074
12,AGAACCGG,0.0734
13,GCCCTGCA,0.0761
14,CCACGGGC,0.076
15,TATCAGGA,0.0735
16,AACAACGA,0.075
17,ACGCTTTC,0.0752
18,GAGCCTTA,0.0709
19,GCCGCCCA,0.0745
20,TTCGCAAA,0.0733
21,CCCGTCTA,0.0728
22,TCCGGGAA,0.0701
23,CTGCTCCC,0.0741
24,ACTTTAAA,0.0719
25,AGTCGACT,0.079

row,Sequence,binding signal (normalized occupancy)
1,CCGCACCC,0.078
2,CAACCCTC,0.0777
3,AGGCATCG,0.0725
4,AAGCACTC,0.0743
5,AATCGAAT,0.0782
6,CTCGAGTA,0.0758
7,AAACGCTC,0.0724
8,ATCGACTG,0.0693
9,ATGGACAG,0.0816
10,TGTTAACA,0.0864
11,GTCCCCAC,0.0823
12,AAACCGAC,0.0727
13,AAGCAGAG,0.0743
14,AGCAAAGC,0.0681
15,AGACCCCC,0.0781
16,AAAAGTCA,0.0711
17,CTTGCCAC,0.0767
18,ACCCGTGG,0.082
19,CGGCATAA,0.0746
20,CAGTACTA,0.0775
21,GAGATGGA,0.0798
22,CGGCCAGA,0.0677
23,CTCGTTCA,0.0752
24,AATGCAGA,0.0752
25,CTAAGTTC,0.0701

row,Sequence,binding signal (normalized occupancy)
1,GGCCATAA,0.0826
2,CTACCATA,0.084
3,TCGCCAGA,0.0685
4,AAGCGGGG,0.0708
5,GGAATTAC,0.0744
6,GAGAAGCA,0.0753
7,CGAAGTCA,0.0731
8,GTGGTTCA,0.0838
9,CGCCAGCC,0.0716
10,CGTCGCCC,0.0699
11,GACACTAA,0.0759
12,GGCACGAC,0.0781
13,ACGTAACA,0.0838
14,CCGGACGG,0.0638
15,AGGTAGGC,0.0738
16,CATTTTTC,0.0786
17,CTATTTAA,0.0752
18,CTGATGCA,0.0796
19,CATGGGCG,0.0822
20,ACATCCGC,0.0795
21,CAACGATC,0.0729
22,AGCAGACC,0.0712
23,ACACTCCA,0.0787
24,CCCATACA,0.0836
25,CGTGAAAA,0.0792

row,Sequence,binding signal (normalized occupancy)
1,AGTCTTAC,0.0768
2,ACATTTTC,0.0796
3,CACTTCCC,0.0778
4,CGGGCCGA,0.067
5,CAACGGAC,0.0686
6,CTAGACCC,0.0767
7,CCTCTCGA,0.072
8,ATATTTCA,0.0816
9,AGCGAAAC,0.0671
10,TACCACGA,0.0924
11,GATCTGAC,0.0768
12,CTTCCAAG,0.0703
13,CACCAGCC,0.0747
14,CCGAGACA,0.0692
15,GCGGGACC,0.0689
16,CCACGTTA,0.105
17,GAGTCTAC,0.0665
18,GTGGGAGA,0.0773
19,AATAGAGC,0.0803
20,ACGCGGTC,0.0818
21,CCAAAGTC,0.0703
22,CACGCTGC,0.131
23,AAGCTCAC,0.0688
24,TCGTTGCA,0.0775
25,CGCGTGCC,0.118

row,Sequence,binding signal (normalized occupancy)
1,TGACGTAA,0.0817
2,ACTTTCAC,0.0729
3,GGTTGCAA,0.0715
4,GCGCAACA,0.0706
5,ACACTAAC,0.0775
6,GGGAACCA,0.0799
7,AATTCTTC,0.0696
8,CTCGGCCA,0.0708
9,CCGACGCC,0.075
10,TACTCTCA,0.0739
11,CGCACACA,0.0821
12,GTAACCCA,0.0809
13,GAATTACA,0.0731
14,ATGGGATC,0.0817
15,ATGCTCAC,0.0841
16,GGACTGAA,0.0704
17,AGGACACT,0.0776
18,ACCGTGGC,0.0752
19,CAATGCTC,0.0774
20,ACAGTGTC,0.0743
21,AGACCCTC,0.0752
22,AGAGATAC,0.073
23,CTGTTTAA,0.0701
24,CACCCATA,0.0892
25,CTGATTTC,0.073

row,Sequence,binding signal (normalized occupancy)
1,CCAAGAAC,0.071
2,AAGGCTAA,0.0716
3,TTGGTAAA,0.0726
4,GATTAAAC,0.0753
5,CACTTTCC,0.0749
6,GATCCGCC,0.0714
7,ACATCCCC,0.0859
8,CTGGAGCC,0.0725
9,ATCACACA,0.0852
10,ACAAACCT,0.0779
11,CTATAGTA,0.0737
12,AAGTGCCG,0.0706
13,GACTAAGA,0.0651
14,CGTATGTA,0.0885
15,GCTGACAC,0.0763
16,AGGAAGTG,0.0694
17,CTTGCACA,0.0801
18,CCCGTGGA,0.0823
19,CCGAAGTA,0.0696
20,AAGCGTGA,0.0961
21,CACTAATC,0.0751
22,GCAGTTAA,0.07
23,AAGCACGA,0.0867
24,ACCATGGA,0.0861
25,TAAACATA,0.083

row,Sequence,binding signal (normalized occupancy)
1,ACCTTCGT,0.072
2,AGCCTCAA,0.0701
3,AGTTCTAA,0.0746
4,CGTGATGC,0.0891
5,AACTGATA,0.0775
6,GTATATGA,0.0886
7,AGATCAAG,0.0766
8,AAGATCTA,0.0775
9,CCTTAACA,0.0794
10,CCCTACCG,0.076
11,CCTGGAAC,0.0734
12,TAACTGAA,0.073
13,CTCCAGAC,0.069
14,AATGCGTA,0.0846
15,ACATCGCG,0.0757
16,AATAGTGC,0.0733
17,ACCCCAAG,0.0753
18,GCTTAGAC,0.0762
19,GAGACTAC,0.0744
20,GATCGTCC,0.0702
21,GTTCGATA,0.0744
22,CGAACATC,0.0771
23,ACTTAAAT,0.0746
24,GATAGGAC,0.0775
25,ATTCAAAA,0.0721

row,Sequence,binding signal (normalized occupancy)
1,TGCTTCAA,0.0792
2,AGCGACCT,0.0668
3,CGATGCCC,0.0786
4,GAGTGCAC,0.082
5,AGCCATTC,0.0723
6,AACATCTT,0.0763
7,AAGCCGAC,0.0686
8,CTCGCATC,0.0773
9,CTCATGAA,0.0856
10,ACTCATAT,0.0838
11,ATTCTGGA,0.0737
12,AAAAACTA,0.0735
13,ATTGGCAG,0.0726
14,CGCAGCGA,0.0669
15,AGAGCGTA,0.0758
16,GAGCGTGC,0.0887
17,GTGTCCTA,0.074
18,CGTAATTC,0.0757
19,ATGGGCCG,0.0763
20,GAGGTACC,0.0689
21,GCAGCAGC,0.0725
22,CGAGTAGA,0.0741
23,AGCGGCAC,0.0754
24,ATATCGAG,0.0761
25,ATCCACAT,0.0977

row,Sequence,binding signal (normalized occupancy)
1,ACCTAGTA,0.0711
2,CCAACGGA,0.0721
3,CCAGTGCG,0.0677
4,AAGGGTAC,0.0733
5,GGGGCACA,0.079
6,GCCTCACC,0.0737
7,AATGCTGG,0.0789
8,GTCGTTCA,0.073
9,ATAGCCCC,0.0781
10,GCTGGTAA,0.0721
11,AGCATCGA,0.073
12,AGCTCGTG,0.0836
13,AATGTAGT,0.0767
14,AAACATGC,0.0937
15,CCTTAACC,0.0754
16,AGTATACC,0.0818
17,TGCAGTAA,0.078
18,ACAATGGT,0.0799
19,AATCGTGT,0.0839
